The subject of assay [1] is Mycobacterium tuberculosis H37Rv. The conditions noted are these: M. tuberculosis H37Rv; compounds isolated from Piper sanctum; cited from earlier work.
The test system is the same in assay [2].

Molecules are shown by their SMILES. Converted amounts (≈) assume the structure as drawn. Read-outs that look alike come from different tables or passages of the source.

This passage reports MIC results from publication PMC3276683 (Bioorganic & medicinal chemistry, 2012).

A word on the MIC: it is the lowest concentration found to suppress growth.

Turning to `COc1cc(/C=C/c2ccccc2)oc(=O)c1` [compound 4, 4-Methoxy-6-styryl-2H-pyran-2-one], the minimum inhibitory concentration (MIC) in assay [1] is 4 µg/mL (≈ 17.5 µM).

Turning to `COc1cc(CCc2ccc3c(c2)OCO3)oc(=O)c1` [compound 2, 6-[2-(1,3-Benzodioxo-5-yl)ethyl]-4-methoxy-2H-pyran-2-one], in assay [1], the MIC is 32 µg/mL (≈ 117 µM).

With `NNC(=O)c1ccncc1` [isoniazid], inhibition of growth in assay [2] (MIC) required 0.03 µg/mL (≈ 0.219 µM).
